Binding data for 4 substances are collected here from paper PMC8368002, “Crystal structure of the INTS3/INTS6 complex reveals the functional importance of INTS3 dimerization in DSB repair” (Cell Discovery, 2020).

Amino acid sequences for entries named in this document (tags omitted). A change or cut given only in a name is not applied to a line headed by its entry. Chains listed by the source or under a name are the forms on record and can include a tag or linker.
UniProt Q68E01: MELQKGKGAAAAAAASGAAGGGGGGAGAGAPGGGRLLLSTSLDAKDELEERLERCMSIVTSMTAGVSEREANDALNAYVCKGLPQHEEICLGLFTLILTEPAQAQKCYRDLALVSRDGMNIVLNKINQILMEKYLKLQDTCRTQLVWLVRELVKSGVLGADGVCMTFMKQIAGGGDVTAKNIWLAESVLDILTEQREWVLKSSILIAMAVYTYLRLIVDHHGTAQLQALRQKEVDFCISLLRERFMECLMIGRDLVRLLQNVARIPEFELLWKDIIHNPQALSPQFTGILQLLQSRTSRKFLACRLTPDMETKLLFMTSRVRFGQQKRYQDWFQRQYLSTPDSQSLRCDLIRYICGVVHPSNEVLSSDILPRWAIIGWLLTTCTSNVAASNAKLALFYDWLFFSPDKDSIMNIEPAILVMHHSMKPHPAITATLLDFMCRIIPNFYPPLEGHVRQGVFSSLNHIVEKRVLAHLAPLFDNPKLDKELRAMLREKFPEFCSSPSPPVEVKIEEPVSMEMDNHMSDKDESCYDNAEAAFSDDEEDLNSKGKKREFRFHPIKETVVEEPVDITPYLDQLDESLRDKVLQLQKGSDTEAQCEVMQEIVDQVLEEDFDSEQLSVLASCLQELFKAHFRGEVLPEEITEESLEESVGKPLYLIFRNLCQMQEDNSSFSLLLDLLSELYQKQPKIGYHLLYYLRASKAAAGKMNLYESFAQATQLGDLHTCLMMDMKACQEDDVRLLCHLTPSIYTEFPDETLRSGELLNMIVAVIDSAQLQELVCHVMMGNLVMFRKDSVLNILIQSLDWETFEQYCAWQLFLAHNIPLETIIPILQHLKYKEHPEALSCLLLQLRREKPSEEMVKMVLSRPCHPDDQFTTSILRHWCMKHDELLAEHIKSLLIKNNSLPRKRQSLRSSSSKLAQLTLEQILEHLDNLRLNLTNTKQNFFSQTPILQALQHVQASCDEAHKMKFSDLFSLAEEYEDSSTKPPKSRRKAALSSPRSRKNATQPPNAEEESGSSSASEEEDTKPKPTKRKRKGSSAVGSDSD
UniProt Q9UL03: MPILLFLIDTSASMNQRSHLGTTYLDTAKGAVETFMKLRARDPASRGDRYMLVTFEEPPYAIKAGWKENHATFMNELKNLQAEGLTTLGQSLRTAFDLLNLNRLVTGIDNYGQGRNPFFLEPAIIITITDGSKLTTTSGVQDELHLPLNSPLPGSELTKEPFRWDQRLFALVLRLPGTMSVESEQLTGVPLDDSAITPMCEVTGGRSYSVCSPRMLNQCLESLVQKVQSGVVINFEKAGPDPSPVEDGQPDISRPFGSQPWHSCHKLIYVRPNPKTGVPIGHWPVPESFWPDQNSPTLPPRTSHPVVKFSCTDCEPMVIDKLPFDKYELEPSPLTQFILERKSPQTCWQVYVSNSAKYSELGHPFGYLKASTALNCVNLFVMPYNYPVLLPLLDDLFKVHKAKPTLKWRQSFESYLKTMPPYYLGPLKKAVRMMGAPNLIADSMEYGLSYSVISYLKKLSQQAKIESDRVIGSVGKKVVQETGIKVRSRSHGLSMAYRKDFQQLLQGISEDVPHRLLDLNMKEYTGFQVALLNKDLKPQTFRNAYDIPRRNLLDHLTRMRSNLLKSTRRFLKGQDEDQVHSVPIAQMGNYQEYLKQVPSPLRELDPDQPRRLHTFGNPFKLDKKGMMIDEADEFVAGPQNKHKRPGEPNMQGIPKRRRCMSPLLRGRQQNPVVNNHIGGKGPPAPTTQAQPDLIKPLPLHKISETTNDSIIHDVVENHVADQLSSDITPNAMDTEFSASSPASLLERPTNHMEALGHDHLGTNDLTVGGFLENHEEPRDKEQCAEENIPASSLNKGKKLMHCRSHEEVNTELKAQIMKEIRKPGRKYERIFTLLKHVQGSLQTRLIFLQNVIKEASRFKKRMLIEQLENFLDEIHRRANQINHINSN
INTS6c F858A/K859A (Q9UL03, form named): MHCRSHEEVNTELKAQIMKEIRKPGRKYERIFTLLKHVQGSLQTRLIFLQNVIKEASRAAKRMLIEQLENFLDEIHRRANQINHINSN

One experiment has as its target INTS3(1−500) (human) (UniProt Q68E01). The experiment in a line: SEC; analytical size-exclusion chromatography of co-expressed and purified INTS3-hSSB1 complexes (Supplementary Fig. S2); both purified. In general terms: SEC sorts molecules by how far they enter the pores of the column.
Experiment [1] has as its target INTS3c, wild type, as used in the GST pull-down (human) (UniProt Q68E01). Put plainly: pull-down; GST pull-down of INTS3c and INTS6c, wild type or mutants, each mutant against its wild-type partner; which partner carried GST and the conditions are not told; both purified.
For experiment [2], the target named is SFB-tagged full-length INTS3 F806A/E839A (human) (UniProt Q68E01). The experiment in a line: co-IP; HEK293T cells transfected with Myc-tagged and SFB-tagged full-length proteins; lysate with anti-Flag antibody and Protein A Sepharose 2 h at 4 °C, washed with NTEN buffer; blots with anti-Flag and anti-Myc.
In experiment [3] the target is SFB-tagged full-length INTS3 V767A/D769A (human) (UniProt Q68E01). Described as above.
Experiment [4] deals with SFB-tagged wild-type full-length INTS3 (human) (UniProt Q68E01). Described as above.
Experiment [5] concerns the target full-length INTS6 F858A/K859A (human) (UniProt Q9UL03). The description is as above.
The target of experiment [6] is full-length wild-type INTS6 of the co-immunoprecipitation of Fig. 2e (human) (UniProt Q9UL03). Described as above.

These are yes or no findings as the source states them, for the method shown. For some of these results: Binding seen in cells or lysates may run through a third protein. Some entries that bind do so weakly or less than the wild type.

For the substance “INTS3(1−500) (from UniProt Q68E01 1-500) (domain or fragment)”, in the experiment with INTS3(1−500) (human), the binding entry is given as “no binding”.

As for “INTS6c F858A/K859A (from UniProt Q9UL03 800-887) (domain or fragment)”, the binding result in experiment [1] is reported as “no binding”.

“Myc-tagged full-length INTS6 (from UniProt Q9UL03 1-887)”: the binding result in experiment [2] is listed as “binds weakly”; in experiment [3], “binds weakly”; in experiment [4], “binds”.

Turning to “full-length INTS3 of the co-immunoprecipitation of Fig. 2e (from UniProt Q68E01 1-1043)”, the binding result in experiment [5] is listed as “binds weakly”; in experiment [6], “binds”.
